{"source": "PubChem BioAssay AID686978", "about": "(National Center for Advancing Translational Sciences (NCATS), 2013)", "note": "Where “and” joins values, the source holds several entries; their conditions need not be identical. Equal values may be shown once. Among all 420,000 compounds or so, about 64,000 (15%) were called active. This list was built around the results that the source calls inconclusive (neither active nor inactive); the mix of calls is not that of the screen. The call rests on the fitted dose curve; in most records, active means well fitted inhibition curve with a large enough effect; inconclusive means small, poorly fitted or top-dose-only effect; inactive means flat fitted curve, though single readings scatter. Potencies beside an inconclusive call are fits to weak or partial responses and may not hold up. On the % scale 0 is the no-effect control and ±100 the full control effect; potency means the concentration at half of the fitted maximal effect; tags describe the fitted curve by direction and shape.", "data": [{"experiment": "qHTS for Inhibitors of human tyrosyl-DNA phosphodiesterase 1 (TDP1): qHTS in cells in absence of CPT; further: nearly all actives have a fitted effect of over 55% in size", "details": "DT40 Tdp1-/- hTDP1 cells, no CPT, ATP luminescence, 48 h; activity change, negative = growth inhibition: at 46.2 µM (top of the series) unless noted", "procedure,_shortened": "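Camptothecin absent (DMSO only). Human TDP1-complemented DT40 knockout cells, 400 cells/well, 37 °C for minimum 48 hr; ATP measured via CellTiter-Glo, 30 min dark incubation, luminescence.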", "values": [{"smiles": "CC1CC(C)CN(C(=O)c2cc(-c3ccncc3)nc3ccccc23)C1", "note": "(centres undefined)", "Potency": "inconclusive: 32.6 µM [inhibitor, single point]"}, {"smiles": "Cc1ccc(S(=O)(=O)N2CCC(c3nnc(-c4cccc(C)c4)o3)CC2)cc1", "Potency": "active: 3.66 µM"}, {"smiles": "Cc1ccc(S(=O)(=O)NCC(=O)OCC(=O)c2ccc(Cl)s2)cc1", "activity change, negative = growth inhibition": "inactive: -7.87%"}, {"smiles": "Cc1ccnc(SCCn2c(N3CCN(c4ccccc4)CC3)nc3c2c(=O)[nH]c(=O)n3C)n1", "Potency": "inconclusive: 6.51 µM [inhibitor, partial curve]"}, {"smiles": "Cc1cccc(NCc2ccc(O)c3ncccc23)c1C", "Potency": "active: 14.6 µM"}, {"smiles": "COc1ccc(CCNCCC(c2ccccc2)c2ccccc2)cc1OC", "Potency": "active: 18.4 µM"}, {"smiles": "CCOc1ccc(CCNC(=O)c2ccc(C)c(-n3cnc4cccnc43)c2)cc1", "Potency": "inconclusive: 18.4 µM [inhibitor, single point]"}, {"smiles": "Cc1c(O)ccc2c(CN(C)Cc3ccccc3)cc(=O)oc12", "Potency": "active: 18.4 µM"}, {"smiles": "CCCCNC(=O)C1CC(=O)N(C2CCCCC2)C1", "note": "(centres undefined)", "activity change, negative = growth inhibition": "inactive: -5.84%"}, {"smiles": "COc1cccc(/C=N/NC(=S)NC2CC3CCC2C3)c1OC", "note": "(centres undefined)", "Potency": "active: 20.6 µM"}, {"smiles": "O=C(C[n+]1cccc2cccc(O)c21)c1ccccc1", "activity change, negative = growth inhibition": "inactive: -12.1%"}, {"smiles": "Nc1nnc(SC2CC(=O)N(c3ccccc3)C2=O)s1", "note": "(centres undefined)", "Potency": "active: 3.26 µM"}, {"smiles": "O=C(NCC1CCN(Cc2cccc(Cl)c2)CC1)C1CCCN(c2ncnc3c2nc2n3CCCCC2)C1", "note": "(centres undefined)", "Potency": "inconclusive: 18.4 µM [inhibitor, single point]"}, {"smiles": "CCOc1ccccc1OCC(=O)NC1CCSc2ccccc21", "note": "(centres undefined)", "Potency": "inconclusive: 20.6 µM [inhibitor, single point]"}, {"smiles": "Cc1ccc(C(=O)O/N=C/c2c(N3CCOCC3)n(C)c3ccccc23)cc1", "Potency": "active: 4.11 µM"}, {"smiles": "Cc1cc(C)cc(NC(=O)CN2CCN(CCN=CC3=C(O)CC(c4ccc(Cl)cc4)CC3=O)CC2)c1", "note": "(centres undefined)", "activity change, negative = growth inhibition": "inactive: 5.89%"}, {"smiles": "CCOC(=O)c1c(-c2ccc(OC)cc2)csc1/N=C/C1C(=O)CCCC1=O", "Potency": "inconclusive: 29.1 µM [inhibitor, single point]"}, {"smiles": "Cc1c(Cl)cccc1NC(=O)Nc1cnccn1", "activity change, negative = growth inhibition": "inactive: -5.07%"}, {"smiles": "Cn1cnc(S(=O)(=O)N2CCCCC2c2cc(C(=O)NCc3ccc(Cl)c(Cl)c3)no2)c1", "note": "(centres undefined)", "Potency": "active: 6.51 µM"}, {"smiles": "Cc1ccc(C(C)C)c(OCc2ccc(C(=O)Nc3ccc(S(N)(=O)=O)cc3C)o2)c1", "Potency": "inconclusive: 29.1 µM [inhibitor, single point]"}, {"smiles": "Cn1c(Cc2cccc3ccccc23)nnc1SCC(=O)N1CCN(c2cccc(Cl)c2)CC1", "Potency": "active: 23.1 µM"}, {"smiles": "COC(=O)c1sccc1NC(=O)CSc1ccccc1NC(=O)CNC(C)C", "activity change, negative = growth inhibition": "inactive: -0.511%"}, {"smiles": "CC1(C(=O)Nc2cccc3c2CCCC3)CCN1C(=O)C1(c2ccc(Cl)cc2)CC1", "note": "(centres undefined)", "Potency": "inconclusive: 29.1 µM [inhibitor, single point]"}, {"smiles": "Cc1ccc(S(=O)(=O)c2nc(-c3ccco3)oc2SCC(=O)c2ccc(Cl)cc2)cc1", "Potency": "inconclusive: 29.1 µM [inhibitor, single point]"}, {"smiles": "COc1ccc(C(C)(O)c2nc(-c3cccs3)cs2)cc1", "note": "(centres undefined)", "Potency": "inconclusive: 18.4 µM [inhibitor, partial curve, poor fit]"}, {"smiles": "CCN(CC)C(=O)COC(=O)c1cc(-c2ccc(OC)cc2)nc2ccccc12", "Potency": "inconclusive: 25.9 µM [inhibitor, single point]"}, {"smiles": "Cc1ccc2[nH]c(=O)c(-c3noc(C(C)C)n3)cc2c1", "activity change, negative = growth inhibition": "inactive: -22.1%"}, {"smiles": "COc1ccc(-c2cc(C(F)(F)F)nc(NCc3cccs3)n2)cc1", "Potency": "inconclusive: 29.1 µM [inhibitor, single point]"}, {"smiles": "CCC(=O)Nc1cccc(NC(=S)NC(=O)c2ccc(C)cc2)c1", "Potency": "inconclusive: 29.1 µM [inhibitor, single point]"}, {"smiles": "CCN1CCN(c2ccc(S(=O)(=O)N3CCCCC3)cc2NC(=O)CC(C)c2ccccc2)CC1", "note": "(centres undefined)", "Potency": "inconclusive: 29.1 µM [inhibitor, single point]"}, {"smiles": "C=CCN1C(=O)C(O)(CC(=O)c2ccc(N)cc2)c2ccccc21", "note": "(centres undefined)", "Potency": "inconclusive: 29.1 µM [inhibitor, single point]"}, {"smiles": "S=Cc1nc2ccccc2[nH]1", "Potency": "inconclusive: 31.6 µM [inhibitor, single point]"}, {"smiles": "CCCc1nc2cccnc2n1C1CCN(C(=O)Cn2nccc2C)CC1", "activity change, negative = growth inhibition": "inactive: -19.2%"}, {"smiles": "O=C(O)CC1(CC(=O)NCc2ccc(C(F)(F)F)cc2)CCCCC1", "activity change, negative = growth inhibition": "inactive: -5.92%"}, {"smiles": "Cc1cccc(NC(=O)CSc2nc3ccccc3nc2N2CCCC2)c1C", "Potency": "inconclusive: 29.1 µM [inhibitor, single point]"}, {"smiles": "OCCC1CN(Cc2ccccc2O)CCN1CCc1ccccc1", "note": "(centres undefined)", "activity change, negative = growth inhibition": "inactive: -14.4%"}, {"smiles": "CC(=O)Nc1ccc(N(C(=O)CNC(=O)c2ccco2)C(C(=O)NCC2CCCO2)c2ccccc2)cc1", "note": "(centres undefined)", "activity change, negative = growth inhibition": "inactive: -2.55%"}, {"smiles": "Cn1c(CC2C(=O)Nc3ccc(Br)cc32)nc2ccccc2c1=O", "note": "(centres undefined)", "Potency": "inconclusive: 0.0046 µM [inhibitor, full curve, poor fit]"}, {"smiles": "CCC(=O)N(CCc1ccc(OC)c(OC)c1)Cc1cc2ccc(C)cc2n2nnnc12", "activity change, negative = growth inhibition": "inactive: -13.3%"}, {"smiles": "COc1cccc(C(C)(O)c2nc(-c3cncnc3)cs2)c1", "note": "(centres undefined)", "Potency": "inconclusive: 20.6 µM [inhibitor, single point]"}, {"smiles": "CCN1CCn2c3c(c4cc(Cl)ccc42)CCCC31", "note": "(centres undefined)", "Potency": "inconclusive: 29.1 µM [inhibitor, partial curve]"}, {"smiles": "COC(=O)COc1ccc(S(=O)(=O)N2CCCCC2)cc1[N+](=O)[O-]", "activity change, negative = growth inhibition": "inactive: -12.7%"}, {"smiles": "Oc1ccccc1-c1nc(/C=C/c2ccccc2)nn1-c1ccccc1", "Potency": "inconclusive: 29.1 µM [inhibitor, single point] and inconclusive: 23.1 µM [inhibitor, single point]"}, {"smiles": "Cc1ccc(OCCNc2cc(N3CCN(CCO)CC3)ccc2[N+](=O)[O-])cc1C", "Potency": "active: 29.1 µM"}, {"smiles": "CCOC(=O)c1c(NC(=O)c2ccccc2C)sc2c1CCCC2", "Potency": "inconclusive: 18.4 µM [inhibitor, single point]"}, {"smiles": "OCC1OC(n2ccc3c(NO)ncnc32)C(O)C1O", "note": "(centres undefined)", "Potency": "active: 0.146 µM"}, {"smiles": "Cc1cccc(C(=O)N2CCN(c3ncnc4c3cnn4-c3ccccc3)CC2)c1", "Potency": "inconclusive: 29.1 µM [inhibitor, single point]"}, {"smiles": "Cc1nc(-n2nc(C)c(CCC(C)C)c2C)sc1C(=O)Nc1cccc(Cl)c1C", "activity change, negative = growth inhibition": "inactive: -12.9%"}, {"smiles": "CC(=O)NCCc1c[nH]c2ccc(O)cc12", "Potency": "inactive"}, {"smiles": "COc1ccc2oc(=O)cc(CN3CCN(C(=O)c4ccccc4Br)CC3)c2c1", "Potency": "inconclusive: 18.4 µM [inhibitor, partial curve, poor fit]"}, {"smiles": "Cn1c(=O)cc(OCCCC(=O)Nc2cccc(Cl)c2)c2ccccc21", "Potency": "inconclusive: 29.1 µM [inhibitor, single point]"}, {"smiles": "Cc1c(C(=O)N2CCCC2)sc(NC(=O)c2ccc(Cl)cc2)c1C#N", "Potency": "inconclusive: 13 µM [inhibitor, partial curve]"}, {"smiles": "CC1(c2cc(C(F)(F)F)n3nc(C(=O)O)cc3n2)CC1", "activity change, negative = growth inhibition": "inactive: -12.5%"}, {"smiles": "CC1(C(=O)NS(=O)(=O)Cc2ccccc2)CCN1C(=O)C1(c2ccc(Cl)cc2)CC1", "note": "(centres undefined)", "activity change, negative = growth inhibition": "inactive: -2.55%"}, {"smiles": "CCOc1ccc2nc(N3CCN(C(=O)C(C)C)CC3)sc2c1", "Potency": "inconclusive: 16.4 µM [inhibitor, partial curve]"}, {"smiles": "O=c1[nH]c2ccc(NS(=O)(=O)c3ccc(F)cc3)cc2s1", "Potency": "inconclusive: 16.4 µM [inhibitor, partial curve, poor fit]"}, {"smiles": "CCN(CC)S(=O)(=O)c1ccc(C(=O)Nc2cc(S(=O)(=O)N3CCOCC3)ccc2N2CCN(C)CC2)cc1", "activity change, negative = growth inhibition": "inactive: 4.51%"}, {"smiles": "CC1(C)CCc2cc(-c3ccnc(=S)[nH]3)ccc2O1", "Potency": "inconclusive: 25.9 µM [inhibitor, single point]"}, {"smiles": "COc1cccc(C2=Cc3ccc(F)cc3C(CC(C)=O)N2c2ccc(-c3cncnc3)cc2)c1", "note": "(centres undefined)", "Potency": "active: 16.4 µM"}, {"smiles": "c1cc(-c2cn(C[C@H]3CC[C@@H]([C@@H]4CC[C@H](Cn5cc(-c6ccsc6)nn5)O4)O3)nn2)cs1", "Potency": "inconclusive: 18.4 µM [inhibitor, single point]"}, {"smiles": "Cc1ccc(-c2csc(C(O)c3ccc(F)cc3)n2)cc1C", "note": "(centres undefined)", "Potency": "inconclusive: 20.6 µM [inhibitor, single point]"}, {"smiles": "CC(C)CCn1c(=O)c2ccccc2n2c(CCC(=O)NCC3CCCO3)nnc12", "note": "(centres undefined)", "activity change, negative = growth inhibition": "inactive: -2.34%"}, {"smiles": "Nc1cc(=O)[nH]c(SCC(=O)N2N=C(c3ccc(Cl)cc3)CC2c2ccco2)n1", "note": "(centres undefined)", "Potency": "inconclusive: 29.1 µM [inhibitor, single point]"}, {"smiles": "Cn1nnnc1SCCCNCc1ccc(-c2cccc(Cl)c2)o1", "Potency": "inconclusive: 23.1 µM [inhibitor, single point]"}, {"smiles": "CCOc1ccc(NC(=O)CN(C)C(=O)c2ccc(NC3CC3)c([N+](=O)[O-])c2)cc1OCC", "activity change, negative = growth inhibition": "inactive: -40.2%"}, {"smiles": "N/C(Cc1ccccc1Sc1ccccc1)=N\\O", "activity change, negative = growth inhibition": "inactive: -0.592%"}, {"smiles": "COc1ccc2[nH]c(S(=O)Cc3ncc(C)c(OC)c3C)nc2c1", "note": "(centres undefined)", "Potency": "active: 16.4 µM"}, {"smiles": "CN(Cc1cnn(C)c1)C(=O)c1cc(COc2c(F)cccc2F)on1", "activity change, negative = growth inhibition": "inactive: 7.83%"}, {"smiles": "O=C(COC(=O)c1ccc[n+]([O-])c1)Nc1ccccc1OC(F)F", "activity change, negative = growth inhibition": "inactive: -16.3%"}, {"smiles": "Cc1cccc2cc(/C=N/Nc3ccc(C(=O)O)cc3)c(Cl)nc12", "activity change, negative = growth inhibition": "inconclusive: -6.42% [inhibitor]"}, {"smiles": "COc1ccccc1P(=O)(c1ccccc1)c1ccccc1NC(C)=O", "note": "(centres undefined)", "activity change, negative = growth inhibition": "inactive: -11.8%"}, {"smiles": "CCOc1ccc(-n2nnnc2SCC(=O)Nc2cccc(O)c2)cc1", "Potency": "inconclusive: 14.6 µM [inhibitor, partial curve]"}, {"smiles": "O=C(c1cccc2ccccc12)C1CCCN(C(=O)CCc2cnccn2)C1", "note": "(centres undefined)", "Potency": "active: 8.2 µM"}, {"smiles": "CCCNC(=O)c1ccc(N2CCC3(CC2)CC(c2cccc(Br)c2)=NO3)c(NC(=O)c2cccc(OC)c2)c1", "Potency": "inconclusive: 7.31 µM [inhibitor, partial curve]"}]}]}
